Some of the results follow.

T1: UNK ZnF1-3 (human, UniProt Q9C0B0 31-174)
T1 sequence: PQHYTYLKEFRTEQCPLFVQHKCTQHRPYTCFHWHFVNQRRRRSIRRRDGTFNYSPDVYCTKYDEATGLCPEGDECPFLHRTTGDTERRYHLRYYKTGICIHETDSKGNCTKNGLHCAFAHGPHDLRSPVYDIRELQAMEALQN

B1: chr10:112361861:112361862:+_ENSG00000108055_ENST00000361804|hu_mus|motif|central (ssRNA)
RNA: GGGAGUUCUACAGUCCGACGAUCAAUAGCUUCAUAUUUUCUAAGUUCAAGUACAUUCAUCAAUUCCAUGAUUGAUUUGUAGCCUCGGUCCAAUUCCUCUUGCCGCUUUAUCAGCUUUUCCUUCUGCUCAGAGAAAUUCACAAACAACAGAGGAUUGAGCAUCA
B2: chr11:85008163:85008164:-_ENSMUSG00000018481_ENSMUST00000018625|mus_mus|FALSE|FALSE (ssRNA)
RNA: GGGAGUUCUACAGUCCGACGAUCAGCAUUUUCAUACUGAUUCAUGUCAUAAUUAUACAGAGAUGCCAGGUGUCCCACUGAAAGGGCCACUUCAUAAUCUUCUUGGCCAAGGAGCUGCUCCUUAAUCUGAAUUGCUUUUAUGUGCAACAGAGGAUUGAGCAUCA
B3: chr16:94690093:94690094:+_ENSMUSG00000040785_ENSMUST00000117648|mus_hu|mus_mus_mus_hu_True|58_108 (ssRNA)
RNA: GGGAGUUCUACAGUCCGACGAUCGGGGACUCCUGUGGGACACACAGCCUCGAUUCCAGGGGGAAAAAGUCUUAGUCAAUACUAAUUAAAAAGUGUUAAUGAUUUUUGAAAAUCAGAUUACAUCUAUAAAAGAUGAAAAGCAAACAACAGAGGAUUGAGCAUCA
B4: 120587509_120587830_4399_CDS_ENSG00000089154_ENST00000300648|human|control|control (ssRNA)
RNA: GGGAGUUCUACAGUCCGACGAUCACAGUCAUCUGCAGCCUCACGCACAUACUGGUUUCCAUCCCCAAAGCACAGGAGCAGAUGGGGCAGCACGUGAACCACAUACGGCUCAAAAAGUUUCCCCAGCAUGGUGCAGAGCAUCUCCAACAGAGGAUUGAGCAUCA
B5: chr16:75661828:75661829:-_ENSG00000065427_ENST00000302445|hu_hu|FALSE|FALSE (ssRNA)
RNA: GGGAGUUCUACAGUCCGACGAUCUAUUAUUUUCUAGACAGAAGUGCCAACUGUUGUGCUUUCCAGUGUAUCAGUGGUUGCUACAUUCUCCUUCUUGUCUUCGGGUUUCAUGGCAGGAAACAGAAGUACUUCCUUGAUGUUGUUCAACAGAGGAUUGAGCAUCA
B6: chr9:109937893:109937894:+_ENSMUSG00000032479_ENSMUST00000165876|mus_hu|FALSE|FALSE (ssRNA)
RNA: GGGAGUUCUACAGUCCGACGAUCCUCACUUAUUCCUUUUUGUGUUUGUGCAAUUUCCAUGUCUUUAAUUGGAACUGGUGUUGCCUCUGUUUCUGAGAGUGGUGGAACAUCUUUGGCUGGAGUCACAUUGUUGGCCAGGGUCAGCAACAGAGGAUUGAGCAUCA
B7: chr19:55172109:55172110:-_ENSMUSG00000024978_ENSMUST00000061856|mus_hu|FALSE|FALSE (ssRNA)
RNA: GGGAGUUCUACAGUCCGACGAUCGUGUGCUUACAUCGACCAACACUGUAUUCUGAUGAAUGUGGCAGAUAAGAAACAUCUAUUGUACCAAGGGUCAGUGCAGAUUCAUCCAUGUCACAAAGUGUAAUUCCCAAAUCAUGUGCUCAACAGAGGAUUGAGCAUCA
B8: chr11:100879890:100879891:+_ENSMUSG00000019302_ENSMUST00000044721|mus_hu|motif|central (ssRNA)
RNA: GGGAGUUCUACAGUCCGACGAUCUUGGAAAACAUUCACAUCUGGAUUUAAGUCACGAAACUGAACCUUUCCAAGUUCUCCGGAUUCACUGACACAACAAUAAGCAGCCUCUGACUGUAGAAAAAGCUGGGCCAGUGUCAUUUCCAACAGAGGAUUGAGCAUCA
B9: chrX:130830105:130830106:+_ENSMUSG00000033578_ENSMUST00000037687|mus_hu|FALSE|FALSE (ssRNA)
RNA: GGGAGUUCUACAGUCCGACGAUCACUGUAGGCAUCCUUGCUGAGCCUGGGGGUCAGCUUGAUAGUCCCCAUGAAAACAAAGAAGAGUCCCAGGGCCACUGAGAGGGCCACAAUAGUUACGGUUCUGGGGGAUGCCAUGGGGUCCAACAGAGGAUUGAGCAUCA
B10: chr9:128199989:128199990:-_ENSG00000119487_ENST00000373498|hu_mus|FALSE|FALSE (ssRNA)
RNA: GGGAGUUCUACAGUCCGACGAUCCAAAGAAGCACACUUGACUCUGAGAUGCUUAGACACAAUGAUUUAAAAAAUGUCCUAAACACAGGUCGUAUAAGAUAUCGGCUGUGGCCCUGGCCCAAGGAUGCUGCCACAGGCGGGACCCAACAGAGGAUUGAGCAUCA
B11: chr17:64801638:64801639:+_ENSG00000154229_ENST00000413366|hu_mus|hu_hu_hu_mus_False|58_98 (ssRNA)
RNA: GGGAGUUCUACAGUCCGACGAUCUAUAUAUAUAUAUAUAUACACACACAUAUAUAGUAAAACCCUAGUUAAACGUGUAAACUAGCCAUUCAUUUUUAAAAUUACAUCUACAUUAAAAAAUUAAUAUAUCUGAUAGAGUGCCAGCAACAGAGGAUUGAGCAUCA
B12: 33134949_33138083_1000_CDS_ENSG00000162521_ENST00000458695|human|control|control (ssRNA)
RNA: GGGAGUUCUACAGUCCGACGAUCUAAAAUAGUCUCAUUGUGAGGUGACCACUGAACCUGGAAUAUUUCAUCCUUAUGUGACUCAAAGGAAUGCAACUUAAGUUUCAGAUUUCUCAGAUCCCACAAGGCAACAGUCUUGUCAGCCAACAGAGGAUUGAGCAUCA
B13: chr16:94664741:94664742:+_ENSMUSG00000040785_ENSMUST00000117648|mus_hu|mus_mus_mus_hu_False|18_28 (ssRNA)
RNA: GGGAGUUCUACAGUCCGACGAUCUGGUACUGAUCUUGGUAGCUGAUAUUCAGGAGAAAGGCUGGCCAAGGGUGUAUAUAUGCUGGUGUACUGGGGCAAACCUGGUACCAUGUUAAUGUACGCUGGUGGUGUCUGGGUGAUAUCCAACAGAGGAUUGAGCAUCA
B14: chr13:24894569:24894570:+_ENSMUSG00000019132_ENSMUST00000019276|mus_hu|FALSE|FALSE (ssRNA)
RNA: GGGAGUUCUACAGUCCGACGAUCAGUACCUAAUUCUUAGUUAUUUCAGAUUUCACUAUUGCUAUGUAUUGUCAGUGCUUGUUAUUGAUUACACUUGGUGGUGAGCAUAGAGAAAAGUGCAAAAUCGGUAGAGAAGGAAAGGGACAACAGAGGAUUGAGCAUCA

For the assay, the target named is T1, UNK ZnF1-3. Nature of the assay: nsRBNS (natural sequence RNA bind-n-seq); RBNS binding buffer (assumed for nsRBNS): 25 mM Tris pH 7.5, 150 mM KCl, 3 mM MgCl2, 0.01% Triton X-100, 500 ug/ml BSA, 20 U/ml SUPERase-In, 4 C; UNK is unkempt and MSI1 is Musashi-1; names of the RNAs are library labels; protein concentration not given here; high values mean tight binding.
For the molecule B1, the binding signal stood at 0.574 enrichment R.

Regarding B2, the binding signal is 1.85 enrichment R.

As to B3, the binding signal stood at 1.47 enrichment R.

The molecule B4 gave a binding signal of 1.38 enrichment R.

In turn, B5 displayed a binding signal of 0.567 enrichment R.

B6 returned a binding signal of 0.505 enrichment R.

B7 gave a binding signal of 0.782 enrichment R.

Molecule B8 had a binding signal of 0.614 enrichment R.

In turn, B9 gave a binding signal of 1.08 enrichment R.

Turning to B10, the binding signal turned out to be 1.03 enrichment R.

On to B11, for which the binding signal amounted to 1.22 enrichment R.

With B12, the binding signal was found to be 0.988 enrichment R.

B13 showed a binding signal of 0.925 enrichment R.

Molecule B14 showed a binding signal of 1.29 enrichment R.

For the origin of these results see paper PMC12136788.
